Experimental data as given in the RNAGym collection of RNA variant scans (doi:10.1093/nar/gkz1192).
The source gives no read counts; variants with many changes may rest on few reads.

B1: CPEB3 Ribozyme (parent)
chain: UAACAGGGGGCCACAGCAGAAGCGUUCACGUCGCAGCCCCUGUCAGAUUCUGGUGAAUCUGCGAAUUCUGCUGUAUAUCUC

Variants of: B1
Assay: self-cleavage, relative activity (ratio to wild type); higher = more cleavage; in vitro, sequencing
Method in brief: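 Barcoded CPEB3 ribozyme mutants, produced by rounds of error-prone PCR, self-cleaved while being transcribed with T7 RNA polymerase for 5 hours at 37°C and during a subsequent 15 min DNase I step before EDTA was added. Sequencing of template-switched cDNA on Illumina gave cleaved and total reads, and DNA sequencing assigned barcodes to variants. Each variant's relative activity is its cleaved/total read fraction divided by the unmutated ribozyme's fraction, averaged across three batches. A variant needed a minimum of 5 reads.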

| Variant | self-cleavage |
| --- | --- |
| UAACAGGGGGCCACAGCAGAAGCGUUCACGUCGCAGCACCUGUCAGAUUCUGGCGAAUCUGCGAGUUCUGCUGUAUAUCUC [C38A U54C A65G] | 0.05 |
| UAACAGGGGGCCACAGCAGAAGCGUUCACGUCGCAGCUCCUGUCAGAUUCUGGUGUAUCUGCGAAUUCUGCUGCAUAUCUC [C38U A56U U74C] | 0.79 |
| UAACAGGGGGCCACAGCAGAAGCGUUCACGUCGCAGUCCCUGUCAGAUUCUGGUGGAUCUGCGAAUUCUGCUGUAUACCUC [C37U A56G U78C] | 0.45 |
| UAACAGGGGGCCACAGCAGAAGCGUUCACGUCGCAGUCCCUCUCAGAUACUGGUGAAUCUGCGAACACUGCUGUAUAUCUC [C37U G42C U49A U66C U67A] | 0.09 |
| UAACAGGGGGCCACAGCAGAAGCGUUCACGUCGCAGCUCCUGUCAGAUUAUGGUGAAUCUGCUAAUUCCGCUGUAUAUCUC [C38U C50A G63U U69C] | 0.08 |
| UAACAGGGGGCCACAGCAGAAGCGUUCACGUCGCAGUCCCUGUCAGAUCCUGGUAAAUCUGCGAAUUCUGCUGUAUAUCUC [C37U U49C G55A] | 0.34 |
| UAACAGGGGGCCACAGCAGAAGCGUUCACGUCGCAGUCCCCGUCAGAUUCUGGUGAAUCUGCGAAUUCUGCUGUAUAUCCC [C37U U41C U80C] | 0.81 |
| UAACAGGGGGCCACAGCAGAAGCGUUCACGUCGCAGCCACUGUCAGAUUCUGGUGAAACUGCGAAUUCUGCUGUACACCUC [C39A U58A U76C U78C] | 0.08 |
| UAACAGGGGGCCACAGCAGAAGCGUUCACGUCGCAGCACCCGUCAGAUUCUGGUGAGUCUGCGAAUUCUGCUUUAUAUCUC [C38A U41C A57G G73U] | 0.18 |
| UAACAGGGGGCCACAGCAGAAGCGUUCACGUCGCAGACCCUGCCAGAUUCUGGUGAAUCUGCGAAUUCUGCUGUACAUCUC [C37A U43C U76C] | 0.09 |
| UAACAGGGGGCCACAGCAGAAGCGUUCACGUCGCAGCCUCUGUCAGGUUCUGGUGAAUCUGCGAAUUCUGCUGUAUAUCGC [C39U A47G U80G] | 0.89 |
| UAACAGGGGGCCACAGCAGAAGCGUUCACGUCGCAGCCACUGUCAGAUUCCGGUGAAUCUGCGAAUUCUGCUCUAUAUCUC [C39A U51C G73C] | 0.7 |
| UAACAGGGGGCCACAGCAGAAGCGUUCACGUCGCAGCACCUGUCAGAUCCUGGUGAAUCUGCGAAAUCUGCUGUAUAUCUC [C38A U49C U66A] | 0.2 |
| UAACAGGGGGCCACAGCAGAAGCGUUCACGUCGCAGCUCCUGUCAGUUUCUGGUGAGUCUGCGAAUUCCGCUGUAUAUCUC [C38U A47U A57G U69C] | 0.12 |
| UAACAGGGGGCCACAGCAGAAGCGUUCACGUCGCAGCUCCUGUCAGGUUCUGGUGAAUCUGCGAAUCCUGCUGUAUAUCUC [C38U A47G U67C] | 0.15 |
| UAACAGGGGGCCACAGCAGAAGCGUUCACGUCGCAGCCGCUGUCAGGUUCUGGUGAAUCUGCGAACUCUGCUGUAUUUCUC [C39G A47G U66C A77U] | 0.26 |
| UAACAGGGGGCCACAGCAGAAGCGUUCACGUCGCAGACCCCGUCAGAUUCUGGUGAAUCCGCGAAUUCUGCUGUAUAUCUC [C37A U41C U60C] | 0.24 |

| Variant | self-cleavage |
| --- | --- |
| UAACAGGGGGCCACAGCAGAAGCGUUCACGUCGCAGCUCCUGCCAGAUUCUGGUGAAUCUGCGAAUUCCGCUGUAUAUCUC [C38U U43C U69C] | 0.08 |
| UAACAGGGGGCCACAGCAGAAGCGUUCACGUCGCAGCGCCUGUCAGAUUCUGGUGGAUCUGUGAAUUCUGCUGUACAUCUC [C38G A56G C62U U76C] | 0.06 |
| UAACAGGGGGCCACAGCAGAAGCGUUCACGUCGCAGACCCAGUCAGAUUCUGGUGAAUCUGCGGGUUCUGCUGUAUAUCUC [C37A U41A A64G A65G] | 0.08 |
| UAACAGGGGGCCACAGCAGAAGCGUUCACGUCGCAGACACUGUCAGAUUCUGGUGAAUCUGCGAAUUCUGCCGUAUAUCUC [C37A C39A U72C] | 0.36 |
| UAACAGGGGGCCACAGCAGAAGCGUUCACGUCGCAGCUCCUGUUAGAUUCUGGUGAAUAUGCGAAUUCUGCUGUAUAUCUC [C38U C44U C59A] | 0.41 |
| UAACAGGGGGCCACAGCAGAAGCGUUCACGUCGCAGCCACUGUCGGAUUCUGGUGGAUCUGCGAGUUCUGCUGUAUAUCUC [C39A A45G A56G A65G] | 0.17 |
| UAACAGGGGGCCACAGCAGAAGCGUUCACGUCGCAGUCCCUGUCAGAUUCAGGUGAAUCGGCGAAUUCUGCUGUAUAUCUC [C37U U51A U60G] | 0.19 |
| UAACAGGGGGCCACAGCAGAAGCGUUCACGUCGCAGACCCUGCCAGAUUCUGGUAUAUCUGCGAAUUCUGCUGUAUAUCUC [C37A U43C G55A A56U] | 0.12 |
| UAACAGGGGGCCACAGCAGAAGCGUUCACGUCGCAGGCCCUGACUGAUUCUGGUGAAUCUGCGAAUUCUGCUGUAUAUCUC [C37G U43A A45U] | 0.33 |
| UAACAGGGGGCCACAGCAGAAGCGUUCACGUCGCAGUCCCUGGCAGAUUCUGGUGGGUCCGCGAAUUCUGCAGUAUAUCUC [C37U U43G A56G A57G U60C U72A] | 0.06 |
| UAACAGGGGGCCACAGCAGAAGCGUUCACGUCGCAGUCCCUGUCAGAUUCUGGUGAAUCGGCGAAUUCUGCCGUAUAUCUC [C37U U60G U72C] | 0.14 |
| UAACAGGGGGCCACAGCAGAAGCGUUCACGUCGCAGCCUCUGUCGGACUCUGGUGAAUCUGCGAAUUCAGCUGUAUAUCUC [C39U A45G U48C U69A] | 0.07 |
| UAACAGGGGGCCACAGCAGAAGCGUUCACGUCGCAGCUCCUGUCAGAUUCUGGUGAGCCUGCGAAUUCUGCUGUAUAUCUC [C38U A57G U58C] | 0.33 |
| UAACAGGGGGCCACAGCAGAAGCGUUCACGUCGCAGUCCCAGUCAGAUCCUGUUGAAUCUGCGAAUUCUGCUGUAUAUCUC [C37U U41A U49C G53U] | 0.2 |
| UAACAGGGGGCCACAGCAGAAGCGUUCACGUCGCAGUCCCUGUCAGGUUCUGGUGAAUCUGCGAAUUCCGCAGUAUAUCUC [C37U A47G U69C U72A] | 0.16 |
| UAACAGGGGGCCACAGCAGAAGCGUUCACGUCGCAGACCCUGCCAGAUUCUGGUGAAUCUGCGAAUUCUGCUGCAUAUCUC [C37A U43C U74C] | 0.18 |
| UAACAGGGGGCCACAGCAGAAGCGUUCACGUCGCAGCUCCUGUCAGAUUUUGGUGAAUCUGCGAAUUCAGCUGUAUAUCUC [C38U C50U U69A] | 0.32 |
